# The supplement of paper PMC4604168 (melanoma cell lines)
# The list shows a part of the results. Most values come without repeats; read them as rough.
# Test system: LOXIMVI
# Experiment: cell count relative to DMSO control; melanoma cells; higher = more viable cells
# Details: library dose: low library concentration; 72 h
# 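Note: cell number obtained by counting DAPI-stained nuclei in high-throughput microscope images with image analysis software, screen run in 1,536-well plates.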
row,SMILES,cell count [%]
1,"N#CC[C@H](C1CCCC1)n1cc(-c2ncnc3[nH]ccc23)cn1 [ruxolitinib] + Cn1nnc2c(C(N)=O)ncn2c1=O [temozolomide] (first compound 1 µM, partner dose 2 µM)",123
2,"Cc1cc(Nc2cc(N3CCN(C)CC3)nc(Sc3ccc(NC(=O)C4CC4)cc3)n2)n[nH]1 [Tozasertib] + Nc1nc(F)nc2c1ncn2[C@@H]1O[C@H](CO)[C@@H](O)[C@@H]1O [fludarabine] (first compound 0.006 µM, partner dose 0.2 µM)",115
3,"N#CC[C@H](C1CCCC1)n1cc(-c2ncnc3[nH]ccc23)cn1 [ruxolitinib] + NC(=O)c1ccc(N(C(N)=O)c2c(F)cccc2F)nc1-c1ccc(F)cc1F [VX702] (first compound 1 µM, partner dose 0.4 µM)",121
